Some test systems named below: WM115; WM1716; WM1745; WM3526; WM3619; WM451Lu.
Common to all, as to experiment: cell count relative to DMSO control; melanoma cells; higher = more viable cells
Settings in all cases: library dose: low library concentration; 72 h

Some of the results follow. Repeats are few or missing, and single values can be far off.
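Further: cell number obtained by counting DAPI-stained nuclei in high-throughput microscope images with image analysis software, screen run in 1,536-well plates.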

Consider `Cn1c(=O)n(-c2ccc(C(C)(C)C#N)cc2)c2c3cc(-c4cnc5ccccc5c4)ccc3ncc21` + O=C(O)[C@@H]1[O][Sb](=[O])([O][Sb]2(=[O])[O][C@H]([C@H](O)CO)[C@H](O)[C@H](C(=O)O)[O]2)[O][C@H]([C@H](O)CO)[C@@H]1O [stibogluconate] (first compound 0.004 µM, partner dose 2 µM), for which the cell count in the experiment with WM115 is 100%; in the experiment with WM1716, 108%; with WM1745 it was 105%; with WM3526, 101%; with WM3619, 115%; with WM451Lu it was 94.7%.

For `CC(C)C[C@H](NC(=O)[C@H](Cc1ccccc1)NC(=O)c1cnccn1)B(O)O` [Bortezomib] + CC(=O)c1c(C)c2cnc(Nc3ccc(N4CCNCC4)cn3)nc2n(C2CCCC2)c1=O [palbociclib] (first compound 0.001 µM, partner dose 0.04 µM), the cell count in the experiment with WM115 was 83.5%; with WM1716, 19.4%; with WM1745, 59.1%; in the experiment with WM3526, 48.2%; in the experiment with WM3619, 16.8%; in the experiment on WM451Lu it was 70.1%.

For `COc1ccc(C2=N[C@@H](c3ccc(Cl)cc3)[C@@H](c3ccc(Cl)cc3)N2C(=O)N2CCNC(=O)C2)c(OC(C)C)c1` [Nutlin-3] + CC(C)CCN1c2nc(Nc3cc(F)c(O)c(F)c3)ncc2N(C)C(=O)C1C [BID1870] (first compound 0.1 µM, partner dose 0.2 µM), the cell count in the experiment on WM115 was 90%; with WM1716, 103%; with WM1745, 97.3%; in the experiment with WM3526, 103%; in the experiment with WM3619, 90.1%; with WM451Lu it was 79.5%.

On to `COc1ccc(C2=N[C@@H](c3ccc(Cl)cc3)[C@@H](c3ccc(Cl)cc3)N2C(=O)N2CCNC(=O)C2)c(OC(C)C)c1` [Nutlin-3] + C=C(c1ccc(C(=O)O)cc1)c1cc2c(cc1C)C(C)(C)CCC2(C)C [Bexarotene] (first compound 0.1 µM, partner dose 2 µM), for which the cell count in the experiment on WM115 worked out at 87.2%; with WM1716, 82.2%; in the experiment with WM1745, 83.3%; in the experiment on WM3526, 77%; with WM3619, 84.9%; with WM451Lu, 94.1%.

`Cc1cn(-c2cc(NC(=O)c3ccc(C)c(Nc4nccc(-c5cccnc5)n4)c3)cc(C(F)(F)F)c2)cn1` [nilotinib] + Cn1c(=O)n(-c2ccc(C(C)(C)C#N)cc2)c2c3cc(-c4cnc5ccccc5c4)ccc3ncc21 [NVP-BEZ235] (first compound 0.2 µM, partner dose 0.004 µM): the cell count with WM115 stood at 115%; with WM1716, 95.4%; in the experiment with WM1745, 98.3%; in the experiment on WM3526, 104%; in the experiment on WM3619 it was 91.1%; with WM451Lu it was 108%.

For `Cn1c(=O)n(-c2ccc(C(C)(C)C#N)cc2)c2c3cc(-c4cnc5ccccc5c4)ccc3ncc21` + CO[C@H]1C[C@@H]2CC[C@@H](C)[C@@](O)(O2)C(=O)C(=O)N2CCCC[C@H]2C(=O)O[C@H]([C@H](C)C[C@@H]2CC[C@@H](OCCO)[C@H](OC)C2)CC(=O)[C@H](C)/C=C(\C)[C@@H](O)[C@@H](OC)C(=O)[C@H](C)C[C@H](C)/C=C/C=C/C=C/1C [everolimus] (first compound 0.004 µM, partner dose 0.02 µM), the cell count worked out at 61.4% with WM115; 58.9% in the experiment on WM1716; 72.8% in the experiment on WM1745; 46.9% in the experiment on WM3526; 38.9% in the experiment on WM3619; 48.1% in the experiment on WM451Lu.

Turning to `COc1ccc(C2=N[C@@H](c3ccc(Cl)cc3)[C@@H](c3ccc(Cl)cc3)N2C(=O)N2CCNC(=O)C2)c(OC(C)C)c1` [Nutlin-3] + CCc1ccc(CCOc2ccc(CC3SC(=O)NC3=O)cc2)nc1 [pioglitazone] (first compound 0.1 µM, partner dose 2 µM), the cell count was 85.5% in the experiment on WM115; 95.1% in the experiment on WM1716; 114% in the experiment on WM1745; 89.2% with WM3526; 114% in the experiment on WM3619; 91.9% with WM451Lu.

With `Cc1cn(-c2cc(NC(=O)c3ccc(C)c(Nc4nccc(-c5cccnc5)n4)c3)cc(C(F)(F)F)c2)cn1` [nilotinib] + NC(=O)Nc1cc(-c2cccc(F)c2)sc1C(=O)N[C@H]1CCCNC1 [AZD7762] (first compound 0.2 µM, partner dose 0.02 µM), the cell count in the experiment with WM115 was 88.6%; in the experiment on WM1716 it was 94%; in the experiment with WM1745 it was 87.2%; in the experiment on WM3526 it was 76.9%; in the experiment on WM3619, 39.8%; in the experiment with WM451Lu, 91.7%.

Take `Cc1cc(Nc2cc(N3CCN(C)CC3)nc(/C=C/c3ccccc3)n2)n[nH]1` + NCC(=O)Nc1ccc(-n2nc(C(F)(F)F)cc2-c2ccc3c(ccc4ccccc43)c2)cc1 [OSU03012] (first compound 0.04 µM, partner dose 1 µM): the cell count came out at 96.7% in the experiment on WM115; 106% in the experiment on WM1716; 105% in the experiment on WM1745; 73.9% in the experiment with WM3526; 76.6% with WM3619; 82.5% in the experiment with WM451Lu.

Regarding `Cc1cn(-c2cc(NC(=O)c3ccc(C)c(Nc4nccc(-c5cccnc5)n4)c3)cc(C(F)(F)F)c2)cn1` [nilotinib] + COc1ccc(-c2ccc3c(N4CCOCC4)nc(N4C[C@@H](C)O[C@@H](C)C4)nc3n2)cc1CO [KU0063794] (first compound 0.2 µM, partner dose 0.02 µM), the cell count came out at 94.5% in the experiment on WM115; 113% with WM1716; 82.2% in the experiment on WM1745; 89.5% with WM3526; 93% in the experiment on WM3619; 104% with WM451Lu.

The values above are taken from the supplement of paper PMC4604168 (melanoma cell lines).
